About 31,000 (8.9%) of roughly 350,000 compounds were called active. This list was built around the results that the source calls inconclusive (neither active nor inactive); the mix of calls is not that of the screen. Calls follow the shape of the dose curve; as a rule, active = well fitted inhibition curve with a large enough effect; inconclusive = small, poorly fitted or top-dose-only effect; inactive = no such curve, though single readings can be large or run the other way. A potency beside an inconclusive call is a rough fit, not a confirmed value.
The compounds below were run against Histone-lysine N-methyltransferase EHMT2 (Homo sapiens) (UniProt Q96KQ7) (assay: qHTS Assay for Inhibitors of Histone Lysine Methyltransferase G9a). Conditions: G9a H3K9 monomethylation, AlphaScreen, 2 h; activity, negative = inhibition: at 59 µM (top of the series) unless noted.
Summary of the method: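 Methyltransferase reactions run at room temperature for 2 h (20 nM enzyme, 500 nM biotin-H3K9 peptide, 20 uM SAM) after a 15 min compound preincubation; product detected by AlphaScreen beads and anti-H3K9me1 antibody.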
% is scaled to controls: 0 for no effect and ±100 for the full control effect; potency is read from the fitted curve at half-maximal effect; tags tell the direction and shape of the fitted curve.
Also: nearly all actives have a fitted effect of over 75% in size.

UniProt Q96KQ7, sequence (Q96KQ7 whole entry, looked up): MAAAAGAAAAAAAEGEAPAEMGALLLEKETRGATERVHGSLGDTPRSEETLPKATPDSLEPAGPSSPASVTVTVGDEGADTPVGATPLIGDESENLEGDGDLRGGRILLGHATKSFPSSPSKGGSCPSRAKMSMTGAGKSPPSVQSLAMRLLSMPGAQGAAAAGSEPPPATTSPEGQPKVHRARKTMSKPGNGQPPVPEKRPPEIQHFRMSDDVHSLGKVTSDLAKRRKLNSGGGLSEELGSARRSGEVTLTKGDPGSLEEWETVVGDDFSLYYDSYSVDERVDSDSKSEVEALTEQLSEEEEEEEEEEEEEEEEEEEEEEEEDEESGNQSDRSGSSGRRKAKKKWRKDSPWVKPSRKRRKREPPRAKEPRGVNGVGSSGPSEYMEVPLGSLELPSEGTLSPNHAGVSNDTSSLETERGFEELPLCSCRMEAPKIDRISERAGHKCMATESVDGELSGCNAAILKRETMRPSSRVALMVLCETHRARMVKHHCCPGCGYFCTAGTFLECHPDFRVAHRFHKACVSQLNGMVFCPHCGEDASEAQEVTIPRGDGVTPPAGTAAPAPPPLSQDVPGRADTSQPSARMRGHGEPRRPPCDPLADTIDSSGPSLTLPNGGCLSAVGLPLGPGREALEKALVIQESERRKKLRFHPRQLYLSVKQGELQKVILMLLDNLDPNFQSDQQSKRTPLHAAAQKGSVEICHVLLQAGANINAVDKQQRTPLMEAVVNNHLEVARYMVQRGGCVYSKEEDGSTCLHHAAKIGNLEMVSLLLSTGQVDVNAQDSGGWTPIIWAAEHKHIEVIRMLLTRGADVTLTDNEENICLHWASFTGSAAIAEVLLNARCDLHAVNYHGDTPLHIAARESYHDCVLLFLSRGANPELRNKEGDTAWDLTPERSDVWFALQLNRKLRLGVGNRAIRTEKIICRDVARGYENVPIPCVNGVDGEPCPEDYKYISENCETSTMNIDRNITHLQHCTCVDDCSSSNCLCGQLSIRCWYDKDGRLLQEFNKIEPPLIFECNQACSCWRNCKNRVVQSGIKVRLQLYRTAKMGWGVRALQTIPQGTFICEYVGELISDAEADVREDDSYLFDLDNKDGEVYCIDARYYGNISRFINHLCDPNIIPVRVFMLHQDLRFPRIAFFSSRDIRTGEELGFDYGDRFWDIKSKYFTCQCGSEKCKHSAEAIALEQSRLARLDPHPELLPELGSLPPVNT

Row | SMILES | Potency | activity, negative = inhibition
1 | CC(C)(C)c1csc(NC(=O)Cn2cnc3ccccc3c2=O)n1 | inconclusive: 2.51 µM [inhibitor, partial curve, poor fit] | 
2 | COc1cc(-c2c(C(C)=O)c(C)nc3c2C(=O)c2ccccc2-3)cc(OC)c1OC | inactive | 
3 | O=C(CCNC(=O)c1ccco1)Nc1ccc(OC(F)(F)F)cc1 | inactive | 
4 | CCN(CC)c1ccc(NC(=O)c2cnc3c(-c4ccccc4)c(C)nn3c2C)c(C)c1 | inconclusive: 7.08 µM [inhibitor, full curve] | 
5 | O=C(CCNC(=O)c1ccc([N+](=O)[O-])cc1)Nc1cc(Cl)ccc1N1CCOCC1 | inconclusive: 35.5 µM [inhibitor, single point] | 
6 | CCN1CC(=O)Nc2cc(S(=O)(=O)N3CCOCC3)ccc21 | inconclusive: 50.1 µM [inhibitor, partial curve] | 
7 | COc1ccccc1N1CCN(C(=O)CN2C(=O)COc3ccc(S(=O)(=O)N4CCCCCC4)cc32)CC1 | inactive | 
8 | O=C(CNC(=S)NC(=O)c1cccs1)c1ccccc1 | inconclusive: 89.1 µM [inhibitor, single point] | 
9 | O=C(Nc1sc2c(c1C(=O)O)CCCC2)c1cccc(Cl)c1 | inactive | 
10 | CC(=O)N1CCN(C(=O)c2c(-c3ccccc3)noc2C)CC1 | inconclusive: 2.82 µM [inhibitor, partial curve, poor fit] | 
11 | Cc1csc2nc(CNS(=O)(=O)c3ccc4c(c3)OCCO4)cn12 | inconclusive: 50.1 µM [inhibitor, partial curve, poor fit] | 
12 | CCN(CC)CCN(Cc1cc2ccc(C)c(C)c2[nH]c1=O)C(=S)NCc1ccco1 | active: 50.1 µM | 
13 | CCOC(=O)c1sc(N)c(C#N)c1CSc1nc2ccc(OCC)cc2[nH]1 | inconclusive: 39.8 µM [inhibitor, single point] | 
14 | COc1ccc(OC)c(-c2c(=O)n(OCc3ccccc3Br)c3ccccc3[n+]2[O-])c1 | inconclusive: 89.1 µM [inhibitor, single point] | 
15 | O=C(Nc1cccc(Cl)c1)N1Cc2ccccc2Oc2ncccc21 | inactive | 
16 | COc1ccc(CN2CCN(C(=O)c3cccnc3)CC2)cc1Br | active: 17.8 µM | 
17 | COc1ccc(S(=O)(=O)Nc2ccc(O)c(Sc3nc4ccccc4s3)c2)cc1 | active: 4.47 µM | 
18 | O=C(Nc1nc(N2C(=O)c3ccccc3C2=O)n(-c2ccccc2)n1)c1ccccc1 | inactive | 
19 | O=C(Cc1ccccc1)c1c[nH]c(C(=O)C(Cl)(Cl)Cl)c1 | inconclusive: 79.4 µM [inhibitor, partial curve, poor fit] | 
20 | CCn1c(SC(C)C)nnc1C1CCN(S(=O)(=O)c2ccc(OC)cc2)CC1 | inconclusive: 20 µM [inhibitor, single point] | 
21 | Cc1occc1-c1nnc(SCC(=O)N2CCCCC2)o1 | inactive | 
22 | O=c1[nH]c(CSc2nc3ccccc3s2)nc2cc(Cl)ccc12 | active: 28.2 µM | 
23 | Cc1ccc(-n2[nH]c(=O)c(-c3ccccn3)c2C)cc1 | inactive | 
24 | C=C1CCC2C(C)(C)[C@H](O)CC[C@@]2(C)[C@@H]1COc1cc(=O)oc2ccccc12 (stereo not given in full) | inconclusive: 89.1 µM [inhibitor, single point] | 

Row | SMILES | Potency | activity, negative = inhibition
25 | COc1cccc2[nH]c3c(N4CCN(Cc5ccc6c(c5)OCO6)CC4)ncnc3c12 | active: 44.7 µM | 
26 | COc1ccccc1/C=C/C=N/n1c(-c2ccc(F)cc2)n[nH]c1=S | active: 3.98 µM | 
27 | CC[C@H](C)[C@@H](NC(=O)O[C@@H]1C(=O)c2cc(Br)ccc2O[C@H]1c1ccc2c(c1)OCO2)C(=O)OC | inconclusive: 89.1 µM [inhibitor, single point] | 
28 | O=C(Nc1nc(-c2cccs2)c(C(=O)C(F)(F)F)s1)c1ccccc1 | inconclusive: 79.4 µM [inhibitor, single point] | 
29 | Cc1ccc(-c2csc(N3CCN(S(=O)(=O)c4ccc5c(c4)NC(=O)CO5)CC3)n2)cc1 | inactive | 
30 | CCOc1ccc(N(C(=O)c2snc(C(N)=O)c2N)C(C(=O)NCC2CCCO2)c2c[nH]c3ccccc23)cc1 (stereo not given) | active: 39.8 µM | 
31 | CCN1CCN(C(=O)c2cc3cc([N+](=O)[O-])ccc3oc2=O)CC1 | inconclusive: 50.1 µM [inhibitor, partial curve, poor fit] | 
32 | CC(C)c1ccc(O)c(N)c1 | active: 1.41 µM | 
33 | COc1ccc(NC(=O)/C=C/c2ccco2)cn1 | active: 44.7 µM | 
34 | Nc1c(O)ccc2c1C(=O)c1ccccc1C2=O | active: 2.51 µM | 
35 | Cc1c(C(=O)N(C)C)sc2c1c(=O)n(-c1ccc(Cl)c(Cl)c1)c(=O)n2Cc1ccc(F)cc1 | inactive | 
36 | Cc1ccc(C(=O)Nc2ncc(Cc3ccccc3)s2)o1 | inconclusive: 35.5 µM [inhibitor, partial curve, poor fit] | 
37 | Cc1cc(C(=O)COC(=O)c2ccc(O)cc2)c(C)n1Cc1ccco1 | inconclusive: 25.1 µM [inhibitor, single point] | 
38 | N#Cc1ccccc1COc1cccc2c1CCCC2O (stereo not given) |  | inactive: 10.7% [at 2.33 µM]
39 | Cc1ccc(NC(=O)Cn2c(C)cc(C)c(C#N)c2=O)c(Cl)c1 | inconclusive: 89.1 µM [inhibitor, single point] | 
40 | CCOc1cc(CNCc2ccccn2)ccc1OCC(=O)NC1CCCCC1 |  | inactive: 2.84% [at 12.7 µM]
41 | COc1ccc(NC(=O)CCS(=O)(=O)c2cc(Br)cc3c2N(C(C)=O)CC3)c(OC)c1 | inactive | 
42 | Nc1cc2nsnc2cc1Br | inconclusive: 6.31 µM [inhibitor, full curve, poor fit] | 
43 | O=C1CSCC(=O)N1c1ncc(C(F)(F)F)cc1Cl | inconclusive: 79.4 µM [inhibitor, partial curve, poor fit] | 
44 | O=C(Nc1ccccn1)C1(c2ccccc2)CCCC1 | inconclusive: 0.316 µM [inhibitor, partial curve, poor fit] | 
45 | O=C(CCCN1C(=O)/C(=C/c2ccccc2)SC1=S)Nc1ccc(O)cc1 | inconclusive: 10 µM [inhibitor, partial curve, poor fit] | 
46 | COc1ccccc1OCC(=O)Nc1ccc(S(=O)(=O)Nc2cc(C)on2)cc1 | inconclusive: 79.4 µM [inhibitor, single point] | 
47 | CC(C)[C@@H]1NC(=O)c2cc([N+](=O)[O-])cc(I)c2OCC[C@@H](C(N)=O)NC(=O)[C@H](CCC(=O)O)NC1=O | active: 44.7 µM | 
48 | C=Cc1ccc(C(=O)NC2CCCN(Cc3ccccc3F)C2)cc1 (stereo not given) | inactive | 

Row | SMILES | Potency | activity, negative = inhibition
49 | CN1CCN(C(c2cccc(C(F)(F)F)c2)c2nnnn2C(C)(C)C)CC1 (stereo not given) | inconclusive: 70.8 µM [inhibitor, partial curve, poor fit] | 
50 | O=[N+]([O-])c1cccc(Nc2nc(Cl)nc(Cl)n2)c1 | inconclusive: 39.8 µM [inhibitor, partial curve, poor fit] | 
51 | CCCOc1ccc(/C(O)=C2/C(=O)C(=O)N(CCOC)C2c2cccnc2)cc1 (stereo not given) | inconclusive: 89.1 µM [inhibitor, single point] | 
52 | Oc1c(Br)cc(Br)cc1/C=N/n1c(-c2ccccc2)n[nH]c1=S |  | inactive: 10.3% [at 0.501 µM]
53 | C[C@H](NC(=O)OC(C)(C)C)C(=O)N/N=C/c1cccc2nccnc12 | inconclusive: 17.8 µM [inhibitor, partial curve] | 
54 | CCOC(=O)c1c(C)n(C)c2cc([N+](=O)[O-])c(O)c([N+](=O)[O-])c12 | inactive | 
55 | Cc1cccc(NC(=O)C(c2ccccc2Cl)N2CCOCC2)c1 (stereo not given) | inactive | 
56 | O=C(/C(C=Nc1cc2c(oc1=O)CCCC2=O)=C(\O)c1ccccc1)c1ccccc1 | inconclusive: 39.8 µM [inhibitor, single point] | 
57 | COc1cc(NC(=O)c2ccc(C)cc2)c(OC)cc1NC(=O)CN1CCCCC1 | inconclusive: 17.8 µM [inhibitor, single point] | 
58 | COc1ccccc1OCCC(=O)OCC(=O)c1c(N)n(C)c(=O)n(C)c1=O | active: 50.1 µM | 
59 | CC(=O)c1ccc(NC(=O)CN2C(=O)/C(=C/C=C/c3ccccc3)SC2=S)cc1 | inconclusive: 20 µM [inhibitor, partial curve, poor fit] | 
60 | COC(=O)CNS(=O)(=O)c1ccc(C)cc1 | inconclusive: 89.1 µM [inhibitor, single point] | 
61 | CCOC(=O)c1c(CSc2ccc(C)cc2)n(C)c2cc(Br)c(O)c(CN(C)C)c12 | active: 8.91 µM | 
62 | Cc1ccc(C)c(-n2c(SCC(=O)Nc3nonc3C)nnc2-c2ccoc2C)c1 | inconclusive: 89.1 µM [inhibitor, single point] | 
63 | O=C(Nc1ncnc2sc3c(c12)CCC3)c1ccco1 |  | inconclusive: -53.6% [inhibitor] [at 12.7 µM]
64 | CN1CCCN(S(=O)(=O)c2ccc3ccccc3c2)CC1 | inconclusive: 79.4 µM [inhibitor, single point] | 
65 | CSc1ccc(Nc2nn(-c3ccc(OC(F)(F)F)cc3)nc2C(C)=O)cc1 | inactive | 
66 | COc1ccccc1CN(Cc1cc2c(C)ccc(C)c2[nH]c1=O)Cc1nnnn1Cc1ccco1 | active: 12.6 µM | 
67 | COc1ccc(CNc2nc(NC(C)=O)nn2-c2ccccc2)cc1 | inactive | 
68 | COc1ccc(S(=O)(=O)N2CCCCC2)cc1NC(=O)CCCNC(=O)c1ccc(Cl)cc1 | inconclusive: 7.94 µM [inhibitor, partial curve, poor fit] | 
69 | CCOC(=O)Cn1nc(N2CCN(c3ccc(F)cc3)CC2)ccc1=O | inactive | 
70 | CC1(CC(=O)Nc2ccccc2)NC(=S)N(c2ccccc2)N1 (stereo not given) | inconclusive: 25.1 µM [inhibitor, single point] | 
